This passage reports z-score results from PubChem BioAssay AID488969 (Vanderbilt High Throughput Screening Facility, 2010).

Whole data set: some 110,000 compounds, median “z-score” near -0.1, cut for the highest 2% near 2. The list shows a part of the results.

The assay deals with Metabotropic glutamate receptor 8 (Rattus norvegicus) (UniProt P70579). Put plainly: mGluR8 Gi/Go-coupled signaling modulation – cell-based, rat, thallium flux, HTS, primary screen (AID 488969). The conditions noted are these: HEK293 rat mGluR8, GIRK (G protein-gated inwardly rectifying potassium channel) thallium flux, FluoZin2; at 10 µM; stronger effect = higher value; submaximal glutamate (EC20) added with thallium.
Chain of UniProt P70579 (P70579 whole entry, looked up): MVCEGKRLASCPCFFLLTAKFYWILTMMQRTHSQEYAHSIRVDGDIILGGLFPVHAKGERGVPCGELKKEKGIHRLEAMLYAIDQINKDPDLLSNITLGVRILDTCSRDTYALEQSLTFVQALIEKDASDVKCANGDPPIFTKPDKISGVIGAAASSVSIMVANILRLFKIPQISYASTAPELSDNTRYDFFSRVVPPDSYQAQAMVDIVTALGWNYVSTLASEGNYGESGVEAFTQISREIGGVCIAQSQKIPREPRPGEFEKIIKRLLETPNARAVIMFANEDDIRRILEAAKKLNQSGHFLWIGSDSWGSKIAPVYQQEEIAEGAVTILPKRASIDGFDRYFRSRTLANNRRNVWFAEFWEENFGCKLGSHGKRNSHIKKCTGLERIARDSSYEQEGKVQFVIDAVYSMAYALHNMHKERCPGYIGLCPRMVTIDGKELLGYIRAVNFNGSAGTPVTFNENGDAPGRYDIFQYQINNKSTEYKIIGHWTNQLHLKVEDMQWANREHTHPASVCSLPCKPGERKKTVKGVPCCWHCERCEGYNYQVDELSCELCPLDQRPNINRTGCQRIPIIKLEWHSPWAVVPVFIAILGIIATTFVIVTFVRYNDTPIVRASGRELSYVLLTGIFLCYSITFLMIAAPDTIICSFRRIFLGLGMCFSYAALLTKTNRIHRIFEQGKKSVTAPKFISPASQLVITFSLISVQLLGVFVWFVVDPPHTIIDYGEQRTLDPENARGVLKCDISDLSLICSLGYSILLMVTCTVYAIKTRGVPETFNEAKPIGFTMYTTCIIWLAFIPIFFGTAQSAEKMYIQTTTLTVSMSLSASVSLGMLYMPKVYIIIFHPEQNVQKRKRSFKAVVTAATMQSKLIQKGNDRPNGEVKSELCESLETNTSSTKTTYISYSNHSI
In the case of `COc1ccccc1CNC(=O)CN1CCC(NC(=O)c2ccccc2F)CC1`, the z-score turned out to be 0.265.
The figure for `COCCNC(=O)C1CCC(Cn2c(=S)[nH]c3ccccc3c2=O)CC1` (configuration not stated) is 0.464.
The figure for `COc1ccc(CCN2C(=O)CC(NNC(=O)c3ccccc3Br)C2=O)cc1` (configuration not stated) is -0.244; for `O=C(Nc1cccnc1)c1sc(Nc2ccccc2)nc1-c1ccccc1` it is -0.378.
Compound `Cc1c(NC(=O)C(C)Sc2n[nH]c(N)n2)c(=O)n(-c2ccccc2)n1C` (configuration not stated) showed a z-score of 0.933.
The figure for `Cc1cc(C)n(-c2nc(C)nc(NCc3ccccc3)n2)n1` is -0.403; for `O=C(NCn1ccc(=O)[nH]c1=S)c1ccccc1` it is -0.0301.
The compound `CC(c1ccccc1)n1cc(C(=O)NCC2COc3ccccc3O2)nn1` (configuration not stated) registered a z-score of 0.0508.
The same measure for `CCOc1ccc2[nH]c(=O)c(=O)[nH]c2c1`: 0.191; for `O=C(Nc1ccc(Cl)cc1)N1CCN(c2ccccc2)CC1`: -0.94.
The figure for `Cc1cccc(C)c1NC(=S)N/N=C/c1ccc(OCCC(C)C)cc1` is 0.00798; for `O=C(NCc1ccc2c(c1)OCO2)C1CCCN(S(=O)(=O)c2cccc3nonc23)C1` (configuration not stated) it is 0.401.
`COc1ccccc1-c1n[nH]c2c1[C@H](C)CC[C@H]2C(C)C` gave a z-score of -0.485.
Consider `O=S1(=O)N=C(N2CCCc3ccccc32)c2ccccc21`, for which the z-score is -0.336.
The same measure for `COc1ccc(/C=N/Nc2c(Cl)cc(Cl)cc2Cl)cc1CN1CCOCC1`: 0.343; for `O=C(COc1ccccc1)NCC(=O)Nc1ccc(S(=O)(=O)NCc2ccco2)cc1`: -0.311; for `O=C1[C@@H]2C(Cc3ccc(O)cc3)NC3(C(=O)Nc4ccc(F)cc43)[C@@H]2C(=O)N1c1ccc(F)cc1` (some centres not stated): 1.2.
The figure for `CCC(C)(C)NC(=O)CN(Cc1cccs1)C(=O)C(=O)Nc1ccc2c(c1)OCCO2` is -0.0844.
The compound `CC(C)[C@H](NC(=O)c1ccc(Cl)c([N+](=O)[O-])c1)C(=O)NCc1ccc(F)cc1` came in with a z-score of 0.57.
The same measure for `CCOC(=O)C1CCN(S(=O)(=O)c2cccc(-c3cn4cc(C)ccc4n3)c2)CC1`: -0.0133.
The same measure for `CCOC(=O)C1=C(C)Nc2nc(SCC)[nH]c(=O)c2C1c1ccncc1` (configuration not stated): 0.799; for `Clc1ccc2noc(-c3ccccc3)c2c1`: -0.0958.
Regarding `CCCCOc1ccc(/C=C/C(=O)Nc2ccc(C(N)=O)cc2)cc1`, the z-score is -0.626.
`CCC(C)(C)NC(=O)C(c1cccn1C)N(C(=O)Cn1nnc2ccccc21)c1ccc(OC)cc1OC` (configuration not stated) came in with a z-score of -0.0483.
The same measure for `CC(C)(C)NC(=O)Cn1c(-c2nonc2N)nc2ccccc21`: 0.105; for `COC(=O)/C=c1/sc2n(c1=O)CCN=2`: 0.679; for `Cc1ccc(Cn2nnc3c(=O)[nH]c(C4CCN(S(=O)(=O)c5cc(C)ccc5C)CC4)nc32)cc1`: 0.616.
The figure for `CC(Nc1cccc2ccccc12)C(=O)N/N=C/c1ccc([N+](=O)[O-])cc1` (configuration not stated) is -0.0998; for `Cc1cccc(NC(=S)N/N=C/c2ccc(Cl)c([N+](=O)[O-])c2)c1` it is 0.0887.
In turn, `O=C(CSc1nnc(-c2ccc(OC(F)F)cc2)o1)N1CCOCC1` showed a z-score of 0.102.
The figure for `Fc1ccc(CSc2nnc(-c3cnccn3)n2Cc2ccco2)cc1` is -1.29; for `Cc1nn(C)c(C(=O)N/N=C/c2ccc(C(F)(F)F)cc2)c1[N+](=O)[O-]` it is -0.463.
The same measure for `O=C(CNC(=O)C(c1ccccc1)c1ccccc1)OCC(=O)c1cccs1`: -0.0213; for `COc1ccc(S(=O)(=O)NCCSC(C)(C)C)cc1`: -0.349.
The same measure for `COc1cccc(-c2ccc(=O)n(CC(=O)Nc3cc4c(cc3NC(C)=O)OCCO4)n2)c1`: 2.05.
Turning to `Cc1ccc2c(c1)-c1c(cnn1CC(=O)NC(C)CCc1ccco1)CO2` (configuration not stated), the z-score is -0.697.
`CCOc1ccc(/C=N/OC(C)C(=O)NCc2ccc3c(c2)OCO3)cc1` (configuration not stated) yielded a z-score of 0.0552.
The same measure for `Cc1cc([N+](=O)[O-])nn1CC(=O)NCc1ccco1`: -0.13; for `CCN(CC)CCCNC(=O)c1ccc(Cl)c(S(=O)(=O)Nc2ccccc2OC)c1`: -0.0127; for `COC(=O)C1=C(CN2CCc3ccccc32)NC(=O)NC1c1cc(C)ccc1C` (configuration not stated): -0.386.
The same measure for `COc1cccc(C2C(C(=O)Nc3cccnc3)=C(C)Nc3nnnn32)c1OC` (configuration not stated): -0.18; for `Cn1ncc(Br)c1C(=O)N1CCN(C(=O)c2ccco2)CC1`: -0.124.
The figure for `c1cncc(-c2nc3ccccc3o2)c1` is -0.0182; for `Cc1cc(-n2c(C)cc(C(=O)CN3C(=O)NC4(CCCCC4)C3=O)c2C)no1` it is -0.183.
Compound `Cc1ccc(CNC(=O)CCNC(=O)Cn2ccc3ccccc3c2=O)cc1` displayed a z-score of -0.213.
On to `CC(C)(O)/C=C1/Oc2ccccc2C1N1CCCCC1` (configuration not stated), for which the z-score is -0.131.
As to `Nn1c(SCC(=O)Nc2ccc3c(c2)OCO3)nnc1-c1ccccc1`, the z-score worked out at 0.129.
`CCCCn1c(O)c(N=NC(=O)Cn2c(C(F)(F)F)nc3ccccc32)c2ccccc21` gave a z-score of 0.194.
The same measure for `O=C(NCC1CCCO1)c1onc(CSc2ccccc2F)c1C(=O)O` (configuration not stated): -1.59; for `Cc1ccc(-c2noc(-c3ccccc3C(=O)N3CCN(C)CC3)n2)cc1`: -0.225; for `CN(C(=O)c1ccno1)c1nnc(-c2cnccn2)s1`: 0.53.
The figure for `CCOC(=O)c1c(NC(=O)c2cccs2)sc(CC)c1-c1cccs1` is -0.275; for `CN(C)CCCNC(=O)c1ccc(Cl)c(S(=O)(=O)N(C)c2ccccc2)c1` it is -0.583.
The figure for `O=C(CN1CCN(C2CCCCC2)CC1)NCCC1=CCCCC1` is 0.393; for `O=C(c1cccs1)N1CCN(Cc2ccc3c(c2)OCO3)CC1` it is -0.063; for `Cn1cc(Br)c(C(=O)NNC(=O)c2cccc(Br)c2)n1` it is 0.0308.
The compound `COc1ccc(C(=O)N2CCCc3ccccc32)cc1` registered a z-score of -0.672.
The same measure for `COc1cc(C(=O)NCc2nnc(SCC(=O)N3CCCCC3)o2)cc(OC)c1OC`: -0.341; for `CCN(CC)C(=O)c1sc(NC(=O)Cc2ccccc2)c(C#N)c1C`: -0.357; for `COc1ccc(NC(=O)C2=C(C)Nc3ncnn3C2c2ccccc2C(F)(F)F)c(OC)c1` (configuration not stated): -0.222.
Consider `Cn1c(=O)[nH]c(=O)c2c1nc(N1CCNCC1)n2Cc1cccc2ccccc12`, for which the z-score amounted to 1.21.
The figure for `C=CCn1c(P(C)(=O)O)nc2ccccc21` is -0.176; for `CCNC(=O)NC(=O)C(C)OC(=O)c1oc2ccc(OC)cc2c1C` (configuration not stated) it is -0.0656.
The same measure for `O=C(Nc1ccccc1-c1ccccc1)c1cccc(C(F)(F)F)c1`: 0.264; for `CCCS(=O)(=O)N1CCN(C(=O)c2ccc(-c3ccccc3)cc2)CC1`: -0.357.
The same measure for `C=CCSc1nc2ccccc2n1C(=O)/C=C/c1ccc(OC)c(OC)c1`: 0.354; for `COc1cccc(/C=N/NC(N)=S)c1OCc1ccccc1Cl`: -0.122.
Regarding `Cc1ccc(NC(=O)c2cc(S(=O)(=O)N3CCCCC3)ccc2N2CCOCC2)cc1F`, the z-score was -0.105.
With `CC(C(=O)NCC1CCCO1)N(C(=O)c1snc(C(N)=O)c1N)c1cccc(F)c1` (configuration not stated), the z-score was -0.442.
Consider `O=C(NCCNc1ccc([N+](=O)[O-])cc1)c1cccc2c(Br)cccc12`, for which the z-score is 0.14.
The compound `CC(Cc1ccccc1)NC(=O)C1CCCNC1=O` (configuration not stated) returned a z-score of -0.463.
The figure for `O=C1OC(c2ccc(Cl)cc2)=N/C1=C\c1cccnc1` is -0.164.
With `CCOc1ccc(CN(C)CC(=O)NNC(=O)c2ccc(Cl)cc2)cc1OC`, the z-score amounted to 0.122.
`COc1ccc(CCNC(=O)c2ccc(CNS(=O)(=O)c3cc(C)ccc3C)cc2)cc1OC` yielded a z-score of -0.564.
The figure for `CN1C(=O)C(O)(CC(=O)c2ccc3c(c2)OCO3)c2ccccc21` (configuration not stated) is -0.0844; for `O=C1CC(=C(c2ccccc2)c2ccccc2)C(=O)N1CCCN1CCN(c2cccc(Cl)c2)CC1` it is -0.113; for `CC(NC(=O)c1sc2cc([N+](=O)[O-])ccc2c1Cl)C(C)(C)C` (configuration not stated) it is 0.263.
Take `Cc1c(NC(=O)c2ccco2)cccc1-c1nc2cccnc2s1`: the z-score was -0.624.
The same measure for `Brc1ccc(/C=N/Nc2ccc3ccccc3n2)cc1`: -0.0956; for `O=C(CSc1ccccc1)Nc1ccc(N2CCN(c3ccccc3)CC2)c(F)c1`: -0.106.
The same measure for `Cc1cccn2c(=O)c(C=O)c(N3CCCCCC3)nc12`: -0.417; for `CCN(CCCNS(=O)(=O)c1ccc2c(c1)CCN2C(C)=O)c1cccc(C)c1`: -0.185; for `O=C(c1ccco1)N1CCN(C(=O)c2cnn3cccnc23)CC1`: -0.36.
`COc1ccc(-c2nn(C)c(=O)c3ccccc23)cc1CNS(C)(=O)=O` showed a z-score of 0.148.
`C/C(=C\C(=O)c1ccccc1)NNc1nc2ccccc2s1` displayed a z-score of -0.107.
Regarding `CC(NCC1(N2CCOCC2)CCCCC1)C(=O)N1CCc2ccccc21` (configuration not stated), the z-score was determined as 0.962.
Consider `CCCN=C(C)c1c(-c2ccccc2)[nH]n(-c2nc3ccccc3s2)c1=O`, for which the z-score is -0.128.
With `Cc1cccc(-n2c(CNC(=O)c3ccc(S(=O)(=O)N4CCCC4)cc3)n[nH]c2=S)c1`, the z-score is -0.425.
The figure for `N#Cc1cc2c(nc1SCC(=O)N1CCOCC1)CCCCC2` is 0.155.
The compound `CCCS/C(N)=N/N=C/c1ccccc1O` showed a z-score of -0.16.
Compound `O=C(O)C(C(=O)/C=C/c1ccco1)=C1SCCS1` returned a z-score of -0.14.
The figure for `CCC(c1nnnn1C(C)(C)C)N(Cc1cccs1)Cc1cc2cc(C)c(C)cc2n2nnnc12` (configuration not stated) is -0.0672; for `COc1ccc(NS(=O)(=O)c2cc(OCC(N)=O)c(C)cc2Cl)cc1` it is 0.049; for `CC(=O)NCc1nc2ccccc2n1Cc1ccccc1F` it is 0.652.
`CCCOC(=O)c1ccc(Oc2cn[nH]c2-c2ccc(OCC)cc2O)cc1` gave a z-score of 0.835.
Consider `Cc1nc(S/C(=C\c2ccc(OCc3ccccc3Cl)cc2)C(=O)O)n[nH]1`, for which the z-score is -0.511.
The figure for `CCCN(C(=O)Cc1nc(N)n[nH]1)C1(C(=O)Nc2ccccc2C)CCCCC1` is 0.232.
`O=C(Nc1ccn(-c2ccccc2)n1)c1ccc(Cl)cc1` yielded a z-score of -0.201.
Turning to `COc1ccc(S(=O)(=O)NCCc2c(C)nn(C)c2Oc2ccccc2)cc1`, the z-score is -0.101.
Turning to `O=C1CN(c2ccc(Cl)cc2)C(=O)CN1NC(=S)Nc1ccc(Cl)cc1`, the z-score is -0.0528.
The figure for `CCOc1ccc2c(C)c(C(=O)O)oc2c1OCC` is -0.107; for `COc1ccc(-c2csc(NC(=O)COc3ccc(N(C)S(=O)(=O)c4ccc(C)cc4)cc3)n2)cc1` it is 0.275.
Compound `O=c1c2ccccc2nc2c3ccccc3c(NCCN3CCOCC3)nn12` showed a z-score of 0.173.
For the compound `O=C(NC1(C(F)(F)F)NC(=O)N(Cc2cccnc2)C1=O)c1cccs1` (configuration not stated), the z-score was -0.0452.
In turn, `CCCC(=O)Nc1ccc(Br)c(Cl)c1` returned a z-score of 0.247.
The figure for `COc1ccc(NC(=O)CCS(=O)(=O)c2ccc(OC)cc2)cc1` is -0.0401.
`Cc1ccc(NC(=O)CCS(=O)(=O)c2ccc(Br)cc2)nc1` displayed a z-score of 1.03.
